Measured values as given in patent US20150150893A1, “ANDROGRAPHOLIDE ANALOGS AND THEIR USE FOR MEDICATION” (LIAONING LIFENG SCIENTIFIC & TECHNOLOGY DEVELOPMENT COMPANY …, priority 2012, published 2015).

System: S180 sarcoma
Parameters: species or system Kunming mice
Conditions: mouse, in vivo, iv

Row | SMILES | anti-tumor efficacy
1 | C=C1CCC2C(C)(CO)C(O)CCC2(C)C1/C=C/C1=CC(=C\c2ccoc2)/OC1=O (centres unmarked) [Example 39, 11,12-dedihydro-14-deoxy-(E)-15-(furan-3-ylmethylene) andrographolide] | statistically significant
2 | CN1CCN(C(=O)CCC(=O)OC2CCC3(C)C4CC(C5=CCOC5=O)C=C4CCC3C2(C)CO)CC1 (centres unmarked) [Example 108] | statistically significant
3 | C=C1CCC2[C@](C)(CC[C@@H](O)[C@@]2(C)CO)C1/C=C/C1=CCOC1=O (some centres unmarked) [Example 1, 11,12-dedihydro-14-deoxyandrographolide] | statistically significant
4 | C=C1CCC2C(C)(CO)C(O)CCC2(C)C1CC(C[N+](=O)[O-])C1=CCOC1=O (centres unmarked) [Example 11, 12-nitromethyl-14-deoxyandrographolide] | statistically significant
5 | CC(NC1CC2[C@](C)(CC[C@@H](O)[C@@]2(C)CO)C(/C=C/C2=CC(=C\c3ccc(N(C)C)cc3)/OC2=O)C12CO2)C(=O)NC1=NCC=N1 (some centres unmarked) [Example 210] | statistically significant
